{"source": "the supplement of paper PMC3334620", "note": "Whole data set: some 33,000 sequences, median “E-score (-0.5 to 0.5)” near -0.054, cut for the highest 2% near 0.39. Some of the results follow."}
{"target": "Ylr278c (UniProt Q05854)", "assay": "PBM E-score (8-mer binding enrichment) (E-score (-0.5 to 0.5)); higher = stronger / more preferred TF binding; most listed sequences are background and not binding sites", "conditions": "protein concentration: 200 nM; construct: GST-DNA-binding domain", "protocol": "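Universal 'all 10-mer' protein binding microarrays (Agilent AMADID 015681) probed with GST-tagged S. cerevisiae TFs (full-length or DBD) made by in vitro transcription/translation (PURExpress), about 100-200 nM. Bound TF was detected with fluorescent anti-GST. Each ungapped 8-mer (which stands for itself and its reverse complement) is scored by the PBM enrichment score (E-score), a modified Wilcoxon-Mann-Whitney statistic from -0.5 to +0.5, computed with the Universal PBM Analysis Suite. Scale: above 0.35 generally sequence-specific binding.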"}
{"sequence": "AAGAGATG", "PBM E-score": -0.111}
{"sequence": "GGTGCCAA", "PBM E-score": -0.224}
{"sequence": "ACACTTGG", "PBM E-score": -0.0964}
{"sequence": "ATCGGCTC", "PBM E-score": 0.159}
{"sequence": "ACTTCGAG", "PBM E-score": 0.0317}
{"sequence": "AGACGTTA", "PBM E-score": -0.276}
{"sequence": "GACCTTGA", "PBM E-score": -0.218}
{"sequence": "AGGTAGGG", "PBM E-score": -0.216}
{"sequence": "AAACATCA", "PBM E-score": -0.139}
{"sequence": "AGAATTCC", "PBM E-score": 0.283}
{"sequence": "CTAGCTCA", "PBM E-score": -0.289}
{"sequence": "CATGGATC", "PBM E-score": 0.0628}
{"sequence": "AGTATGCC", "PBM E-score": 0.076}
{"sequence": "AGGAGCAA", "PBM E-score": -0.0147}
{"sequence": "CTGGTCGA", "PBM E-score": -0.224}
{"sequence": "GATAGTTA", "PBM E-score": 0.0736}
{"sequence": "AATTCGAA", "PBM E-score": -0.0214}
{"sequence": "ACGGTTTC", "PBM E-score": 0.0437}
{"sequence": "ACGTCTCA", "PBM E-score": -0.131}
{"sequence": "GCACATAC", "PBM E-score": -0.0502}
{"sequence": "CACGTGAG", "PBM E-score": -0.144}
{"sequence": "GCCCGATA", "PBM E-score": 0.0679}
{"sequence": "CCGCAAAG", "PBM E-score": 0.131}
{"sequence": "CGTAGTAA", "PBM E-score": -0.0394}
{"sequence": "AATCCAGG", "PBM E-score": -0.00578}
{"sequence": "AATGCGAT", "PBM E-score": -0.0987}
{"sequence": "ACAGACGA", "PBM E-score": -0.081}
{"sequence": "TCCGAGCA", "PBM E-score": 0.34}
{"sequence": "ACCTAGCA", "PBM E-score": -0.14}
{"sequence": "CCAAAGGC", "PBM E-score": -0.192}
{"sequence": "AAGATATG", "PBM E-score": -0.0865}
{"sequence": "GAAGGCAA", "PBM E-score": -0.0238}
{"sequence": "ACGTCAGC", "PBM E-score": -0.154}
{"sequence": "AGCCAATC", "PBM E-score": 0.105}
{"sequence": "GCTATGAC", "PBM E-score": -0.0428}
{"sequence": "CCGTCACG", "PBM E-score": 0.238}
{"sequence": "GAGTGGAA", "PBM E-score": 0.155}
{"sequence": "AGGGCCAA", "PBM E-score": -0.349}
{"sequence": "AGCCCATC", "PBM E-score": -0.103}
{"sequence": "ACGACACT", "PBM E-score": -0.111}
{"sequence": "ACAGTCGC", "PBM E-score": -0.267}
{"sequence": "CCACTCTC", "PBM E-score": 0.0517}
{"sequence": "CCGACCAA", "PBM E-score": 0.142}
{"sequence": "GGGCAGCA", "PBM E-score": -0.121}
{"sequence": "AGGCTCGA", "PBM E-score": -0.174}
{"sequence": "GCAAGACA", "PBM E-score": 0.00062}
{"sequence": "GTTAATAA", "PBM E-score": 0.0868}
{"sequence": "CTGTCGAC", "PBM E-score": -0.158}
{"sequence": "CCACGGCG", "PBM E-score": 0.187}
{"sequence": "TGGCCCAA", "PBM E-score": -0.207}
{"sequence": "ACGAGTGG", "PBM E-score": -0.0151}
{"sequence": "AGTGATTG", "PBM E-score": -0.165}
{"sequence": "CCGGTGGA", "PBM E-score": 0.339}
{"sequence": "ATTCTAGA", "PBM E-score": -0.171}
{"sequence": "ACGTCGTA", "PBM E-score": -0.131}
{"sequence": "AAGGTAGG", "PBM E-score": -0.0347}
{"sequence": "GAGGAAAA", "PBM E-score": 0.0745}
{"sequence": "CGATCATA", "PBM E-score": -0.00591}
{"sequence": "AACGGTCT", "PBM E-score": -0.0855}
{"sequence": "AAACACTG", "PBM E-score": -0.00492}
{"sequence": "CAGGTCAA", "PBM E-score": -0.143}
{"sequence": "GGACGCCC", "PBM E-score": 0.25}
{"sequence": "TGGTGAAA", "PBM E-score": -0.0989}
{"sequence": "CCAGGTCG", "PBM E-score": -0.317}
{"sequence": "TAAAACCA", "PBM E-score": -0.191}
{"sequence": "ATCTGCGC", "PBM E-score": -0.0599}
{"sequence": "ACGCGCTA", "PBM E-score": -0.0327}
{"sequence": "GCATGCAA", "PBM E-score": -0.00913}
{"sequence": "CAGGCAAG", "PBM E-score": -0.203}
{"sequence": "CTGCAGCA", "PBM E-score": -0.151}
{"sequence": "CGCCGCCC", "PBM E-score": 0.284}
{"sequence": "CTTCAGTA", "PBM E-score": -0.0596}
{"sequence": "GGGTCTAC", "PBM E-score": -0.0729}
{"sequence": "GGTCAGGA", "PBM E-score": -0.00867}
{"sequence": "GGATAGCA", "PBM E-score": 0.0343}
{"sequence": "CTTCCTAC", "PBM E-score": -0.214}
{"sequence": "CTGTTAGA", "PBM E-score": -0.133}
{"sequence": "CTAACTTA", "PBM E-score": 0.00352}
{"sequence": "GAACCAGC", "PBM E-score": -0.126}
{"sequence": "ATAGTGTG", "PBM E-score": -0.0618}
{"sequence": "GCACCTGC", "PBM E-score": 0.0187}
{"sequence": "CACGGATC", "PBM E-score": 0.242}
{"sequence": "ACCTAAAT", "PBM E-score": 0.0912}
{"sequence": "ATCGCAGA", "PBM E-score": -0.164}
{"sequence": "ACTAAGCG", "PBM E-score": 0.031}
{"sequence": "GTGAGTGA", "PBM E-score": -0.153}
{"sequence": "ACCCTAAC", "PBM E-score": -0.114}
{"sequence": "ATCGTTTG", "PBM E-score": -0.0457}
{"sequence": "AATGATAG", "PBM E-score": 0.123}
{"sequence": "GCCAAAGC", "PBM E-score": -0.166}
{"sequence": "GACTACAC", "PBM E-score": -0.109}
{"sequence": "AAATGGTC", "PBM E-score": 0.0198}
{"sequence": "TACCGACA", "PBM E-score": 0.224}
{"sequence": "ATCTCAGC", "PBM E-score": -0.0169}
{"sequence": "AAAGCCAT", "PBM E-score": -0.02}
{"sequence": "CGCATTCC", "PBM E-score": 0.138}
{"sequence": "CACGGCAA", "PBM E-score": 0.182}
{"sequence": "CACAGGGC", "PBM E-score": -0.203}
{"sequence": "AACATCAG", "PBM E-score": -0.183}
{"sequence": "TACGGAAA", "PBM E-score": 0.3}
{"sequence": "CGTGCCCA", "PBM E-score": -0.0667}
{"sequence": "CTATTTTA", "PBM E-score": -0.0891}
{"sequence": "ATCGTTAA", "PBM E-score": 0.0168}
{"sequence": "CCAACAAG", "PBM E-score": -0.162}
{"sequence": "AGTGGTCC", "PBM E-score": 0.124}
{"sequence": "CCTGGTAC", "PBM E-score": -0.243}
{"sequence": "GTAATGTA", "PBM E-score": -0.177}
{"sequence": "CGTTACAG", "PBM E-score": -0.196}
{"sequence": "GTTACACA", "PBM E-score": -0.23}
{"sequence": "AGGGTTCA", "PBM E-score": -0.3}
{"sequence": "ACTGTACT", "PBM E-score": -0.249}
{"sequence": "ATAATAGG", "PBM E-score": -0.0461}
{"sequence": "ATCATGTC", "PBM E-score": 0.0925}
{"sequence": "CTCTATTA", "PBM E-score": -0.237}
{"sequence": "CAGAGGGG", "PBM E-score": -0.257}
{"sequence": "AAGGCTAG", "PBM E-score": -0.233}
{"sequence": "CGTTGGCC", "PBM E-score": 0.106}
{"sequence": "ACCCTGTA", "PBM E-score": -0.201}
{"sequence": "CCCACGAC", "PBM E-score": -0.143}
{"sequence": "TCGGGGAA", "PBM E-score": 0.365}
{"sequence": "CGGGTTAG", "PBM E-score": 0.156}
{"sequence": "AATTGAGC", "PBM E-score": -0.127}
{"sequence": "CCAACTCC", "PBM E-score": 0.347}
{"sequence": "GAGTGAGC", "PBM E-score": -0.125}
{"sequence": "GGGAACAA", "PBM E-score": 0.0828}
{"sequence": "CGAGGGAA", "PBM E-score": 0.00635}
{"sequence": "CTATTGGC", "PBM E-score": -0.108}
{"sequence": "AGTCCGCG", "PBM E-score": 0.369}
{"sequence": "AAGGTCAG", "PBM E-score": -0.187}
{"sequence": "AAGCACTC", "PBM E-score": 0.0364}
{"sequence": "GCGGAGCA", "PBM E-score": 0.376}
{"sequence": "AATTTCAC", "PBM E-score": -0.0766}
{"sequence": "ACTCGTCT", "PBM E-score": -0.116}
{"sequence": "ACATCTTA", "PBM E-score": -0.305}
{"sequence": "CGCATAGC", "PBM E-score": 0.0319}
{"sequence": "ACGAAGAT", "PBM E-score": -0.222}
{"sequence": "ACACTGTC", "PBM E-score": -0.113}
{"sequence": "CCTTGCGC", "PBM E-score": -0.0833}
{"sequence": "CCTACACG", "PBM E-score": -0.223}
{"sequence": "ACAGCAGA", "PBM E-score": -0.107}
{"sequence": "CCAAAGGG", "PBM E-score": -0.0737}
{"sequence": "GGACATCC", "PBM E-score": 0.309}
{"sequence": "GCTTCCCA", "PBM E-score": -0.187}
{"sequence": "CTATCAAC", "PBM E-score": 0.0107}
{"sequence": "TTAATGAA", "PBM E-score": -0.0137}
{"sequence": "CTATGCTA", "PBM E-score": -0.195}
{"sequence": "ATATCGAT", "PBM E-score": -0.0809}
{"sequence": "AAAGCTTC", "PBM E-score": -0.0144}
{"sequence": "ATGTTGAC", "PBM E-score": -0.0146}
{"sequence": "GAGTCTAC", "PBM E-score": -0.128}
{"sequence": "CAGGGGGA", "PBM E-score": -0.401}
{"sequence": "CAGTGCAA", "PBM E-score": -0.264}
{"sequence": "GTTTCTAA", "PBM E-score": 0.0238}
{"sequence": "CAAATTTG", "PBM E-score": 0.0993}
{"sequence": "TACACCCA", "PBM E-score": 0.0372}
{"sequence": "GGCGTTTA", "PBM E-score": 0.213}
{"sequence": "GTTTACTA", "PBM E-score": -0.0491}
{"sequence": "ATAAATTA", "PBM E-score": 0.112}
{"sequence": "GTTGACGA", "PBM E-score": -0.183}
{"sequence": "CACCATAC", "PBM E-score": 0.0327}
{"sequence": "ACCAGTCA", "PBM E-score": -0.036}
{"sequence": "CCAATCCC", "PBM E-score": 0.149}
{"sequence": "CAACTCTC", "PBM E-score": -0.0583}
{"sequence": "AAGTTAAC", "PBM E-score": -0.121}
{"sequence": "CGTATGTC", "PBM E-score": -0.00839}
{"sequence": "ACTATCTC", "PBM E-score": -0.101}
{"sequence": "AAATTGCA", "PBM E-score": -0.055}
{"sequence": "ATTGAGTC", "PBM E-score": -0.0642}
{"sequence": "GTCTACGA", "PBM E-score": -0.251}
{"sequence": "AGTTGTCC", "PBM E-score": 0.0866}
{"sequence": "CGGAACGA", "PBM E-score": 0.266}
{"sequence": "GTCTAACA", "PBM E-score": -0.0407}
